According to the supplement of paper PMC10126150:
Sequences with one replicate were seen in a single cluster, so their values are uncertain.

System: ATP
Assay: switch fluorescence ratio, 500 uM ATP over buffer (Cy3 cluster intensity, sum of 5 cycles each) (fold (ratio)); higher = stronger signal-on switching upon ATP binding; sequences stand for … in TCGTCGGCAGCGTCAGATGTGTATAAGAGACAGTTTTTTTTTTTTTTTTTTTTTTTTT…TC
Details: aptamer strand: ATP DNA aptamer (quencher-CACCTGGGGGAGTATTGCGGAGGAAGG + anchor), 100 nM annealed; ATP concentration: 500 uM; one replicate
Procedure, shortened: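 Values give the fluorescence ratio for each switch-domain sequence, averaged from per-cluster ratios of summed target-cycle to summed buffer-cycle Cy3 intensity. The Cy3-labelled switching-strand clusters sat on a modified Illumina MiSeq flow-cell, were annealed to 100 nM quencher-labelled ATP aptamer, and were imaged in selection buffer, then after 15 min with 500 uM ATP at 22 °C. Five cycles ran with NaOH stripping and re-annealing between them, and clusters outside 100-1000 RFU were excluded.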
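Further: ATP exposure 15 min at 22 °C before imaging.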

| Sequence | switch fluorescence ratio |
| --- | --- |
| AATACAGACG | 1.07 |
| AATACCACG | 1.13 |
| AATACGAAA | 1.05 |
| AATACGACCA | 2.02 |
| AATACGTCTA | 1.07 |
| AATACGTGTA | 1 |
| AATACTTAGA | 1.04 |
| AATACTTGGC | 0.906 |
| AATAGAATAG | 0.996 |
| AATAGACAAG | 0.945 |
| AATAGAGGCG | 0.98 |
| AATAGCAAGG | 1.04 |
| AATAGCACTG | 1.1 |
| AATAGCATC | 1.03 |
| AATAGCTCAA | 1.01 |
| AATAGGCAC | 0.981 |
| AATAGGCCCC | 1 |
| AATAGGCCGG | 0.976 |
| AATAGGCTAG | 1.01 |
| AATAGTAAAC | 1.05 |
| AATAGTACAG | 1.06 |
| AATAGTATGT | 1.07 |
| AATAGTCCCC | 1.08 |
| AATAGTCGCG | 1.02 |
| AATAGTGCGT | 0.984 |
| AATAGTTCCC | 1.02 |

| Sequence | switch fluorescence ratio |
| --- | --- |
| AATATAGGGC | 1.05 |
| AATATATGCT | 0.97 |
| AATATCAGTT | 0.963 |
| AATATCGACT | 0.994 |
| AATATCGTGT | 0.94 |
| AATATGGGCA | 1.03 |
| AATCAACAAA | 0.971 |
| AATCAATAAA | 1 |
| AATCAATATT | 0.999 |
| AATCACAAAC | 1.16 |
| AATCAGACAA | 1 |
| AATCAGGATC | 0.998 |
| AATCAGGTAC | 1.05 |
| AATCAGTGAG | 1.02 |
| AATCATCAGG | 1.04 |
| AATCATGGTG | 1.04 |
| AATCATGTCG | 1.08 |
| AATCATTAGG | 1.01 |
| AATCATTGTG | 1.07 |
| AATCCAAAAA | 0.981 |
| AATCCATGAC | 1.07 |
| AATCCGGTGG | 0.946 |
| AATCCGTGAT | 1.16 |
| AATCCTTCG | 1.29 |
| AATCGAAGT | 1.02 |
| AATCGCTGC | 1.06 |

| Sequence | switch fluorescence ratio |
| --- | --- |
| AATCGGCTAA | 1.01 |
| AATCGGTTAC | 1.04 |
| AATCGTTCAC | 0.975 |
| AATCGTTCGC | 1.06 |
| AATCTAATGG | 1 |
| AATCTAGGCA | 0.985 |
| AATCTATGTG | 1.02 |
| AATCTGCAGT | 1.03 |
| AATCTGCGGT | 1.04 |
| AATCTGTAAC | 1.02 |
| AATCTGTCGA | 0.955 |
| AATCTTATGC | 0.969 |
| AATCTTTAGC | 1 |
| AATGAAATC | 1.03 |
| AATGAAGGGT | 0.983 |
| AATGAAGTAG | 0.935 |
| AATGACATTT | 1.01 |
| AATGACCCCG | 1.04 |
| AATGACCCGA | 1.07 |
| AATGAGCCCG | 1.13 |
| AATGAGGGAT | 1.01 |
| AATGAGTAT | 1.01 |
| AATGAGTTAA | 0.946 |
| AATGATCACT | 1.03 |
| AATGCAAGAG | 1.55 |
| AATGCAGGTC | 1.02 |

| Sequence | switch fluorescence ratio |
| --- | --- |
| AATGCCATTT | 0.996 |
| AATGCCGAGA | 0.955 |
| AATGCCGGTA | 0.996 |
| AATGCTACCG | 1.01 |
| AATGGAGAAA | 0.992 |
| AATGGATC | 0.98 |
| AATGGGGAC | 1 |
| AATGGGGAGC | 0.954 |
| AATGGGGGT | 0.983 |
| AATGGGTTAC | 1.06 |
| AATGGTATAA | 0.996 |
| AATGGTCTGA | 1.04 |
| AATGGTGCAG | 1.03 |
| AATGTAAGGG | 1 |
| AATGTCGCGG | 0.998 |
| AATGTCGGG | 1 |
| AATGTCTGTT | 0.966 |
| AATGTG | 0.983 |
| AATGTGGATC | 1.03 |
| AATGTGTCAG | 1.04 |
| AATGTTTAAT | 1 |
| AATGTTTCTC | 1 |
| AATGTTTTGC | 1.08 |
| AATTAAGCAT | 0.99 |
| AATTAAGCTC | 0.98 |
| AATTAATCAA | 1.01 |

| Sequence | switch fluorescence ratio |
| --- | --- |
| AATTACATCA | 1.02 |
| AATTACATCG | 1.03 |
| AATTAGTGG | 1.03 |
| AATTAGTGTA | 0.984 |
| AATTAGTTCC | 1.09 |
| AATTATCTCT | 0.99 |
| AATTATGGTC | 0.957 |
| AATTATGTCT | 0.984 |
| AATTATTAAC | 1 |
| AATTATTCGG | 1.03 |
| AATTCGCAAC | 4.46 |
| AATTCGGAAG | 0.992 |
| AATTCGGGTA | 1.03 |
| AATTCTATGC | 1.07 |
| AATTCTGTGC | 1.12 |
| AATTCTTACG | 1.02 |
| AATTCTTGTT | 1.03 |
| AATTGAATCT | 0.989 |
| AATTGCCGG | 1.05 |
| AATTGCCTTT | 0.979 |
| AATTGGCCGT | 1.03 |
| AATTGGCCTG | 0.985 |
| AATTGGGTCG | 1.03 |
| AATTGTACAT | 1.01 |
| AATTGTACCA | 1.01 |
| AATTGTGTCA | 1 |

| Sequence | switch fluorescence ratio |
| --- | --- |
| AATTGTTCAC | 0.998 |
| AATTTCCCTG | 1.28 |
| AATTTGGATC | 1.04 |
| AATTTGGCTA | 1.05 |
| AATTTGTTCA | 1.01 |
| AATTTTAACC | 1.07 |
| AATTTTATCA | 1.05 |
| AATTTTATTA | 1 |
| AATTTTGCCT | 0.998 |
| AATTTTGTCA | 0.966 |
| AATTTTTCAA | 1.02 |
| ACAAACTGGG | 0.979 |
| ACAAAGTTTT | 1.1 |
| ACAAATAAGT | 0.939 |
| ACAAATTTAC | 1.1 |
| ACAAATTTTA | 0.994 |
| ACAACCGCCG | 1.25 |
| ACAACGGTCG | 1.02 |
| ACAACTCGTA | 0.993 |
| ACAACTTAGC | 1.03 |
| ACAAGCAAGT | 1.15 |
| ACAAGCTAAA | 1.02 |
| ACAAGCTTAA | 1 |
| ACAAGTATGC | 1.08 |
| ACAAGTCAAC | 1.07 |
| ACAAGTGTAG | 0.996 |

| Sequence | switch fluorescence ratio |
| --- | --- |
| ACAATATCAA | 1.04 |
| ACAATATGCG | 1.01 |
| ACAATCGAGG | 1.08 |
| ACAATGGTGT | 1.09 |
| ACAATGTCTT | 0.989 |
| ACAATTAAAC | 1.07 |
| ACAATTAAC | 1.06 |
| ACAATTATGG | 1 |
| ACAATTGGGC | 0.943 |
| ACACAATAAC | 1.93 |
| ACACAATACG | 2.56 |
| ACACACCAGC | 1.15 |
| ACACACTCTG | 1.23 |
| ACACAGCGAC | 1.98 |
| ACACAGGATA | 1.04 |
| ACACAGGTAA | 1.05 |
| ACACAGTACA | 1.31 |
| ACACAGTGTG | 1 |
| ACACATAGTG | 0.942 |
| ACACATCCTC | 1.13 |
| ACACCCCGAT | 1.2 |
| ACACCTTCCC | 3.01 |
| ACACCTTTAT | 1.02 |
| ACACGACTGC | 1.08 |
| ACACGATGGT | 1.06 |
| ACACGATTTA | 1.04 |

| Sequence | switch fluorescence ratio |
| --- | --- |
| ACACGCACGG | 1.57 |
| ACACGGAGCC | 1.07 |
| ACACGGCATC | 1.18 |
| ACACGGCTTA | 1.03 |
| ACACGTATCG | 1.09 |
| ACACGTATTC | 1.05 |
| ACACTAAAAT | 1.05 |
| ACACTACCGC | 1.17 |
| ACACTGATGG | 0.995 |
| ACACTTTCCG | 1.11 |
| ACAGAAACAT | 1.16 |
| ACAGAAATCG | 1.03 |
| ACAGAAGACC | 1.03 |
| ACAGACGCCA | 1.24 |
| ACAGAGACTG | 1.03 |
| ACAGAGCCAT | 1.02 |
| ACAGAGTCGA | 1.01 |
| ACAGATTGGG | 0.98 |
| ACAGCCAAGT | 1.06 |
